# Assay results published in article PMC4336329 (PLoS ONE, 2015).
# The campaign covered roughly 310,000 compounds. About 14,000 (4.5%) showed an effect of 50% or more. The effect is printed as a negative number. Some of the results follow.
# Target: human ether-à-go-go-related gene (hERG) potassium channel (human, UniProt Q12809)
# Test: primary screen, population patch clamp on CHO cells stably expressing hERG
# 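Further: peak tail current of the secondary pulse compared with the same well before compound.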
# human ether-à-go-go-related gene (hERG) potassium channel, sequence (Q12809 whole entry, looked up): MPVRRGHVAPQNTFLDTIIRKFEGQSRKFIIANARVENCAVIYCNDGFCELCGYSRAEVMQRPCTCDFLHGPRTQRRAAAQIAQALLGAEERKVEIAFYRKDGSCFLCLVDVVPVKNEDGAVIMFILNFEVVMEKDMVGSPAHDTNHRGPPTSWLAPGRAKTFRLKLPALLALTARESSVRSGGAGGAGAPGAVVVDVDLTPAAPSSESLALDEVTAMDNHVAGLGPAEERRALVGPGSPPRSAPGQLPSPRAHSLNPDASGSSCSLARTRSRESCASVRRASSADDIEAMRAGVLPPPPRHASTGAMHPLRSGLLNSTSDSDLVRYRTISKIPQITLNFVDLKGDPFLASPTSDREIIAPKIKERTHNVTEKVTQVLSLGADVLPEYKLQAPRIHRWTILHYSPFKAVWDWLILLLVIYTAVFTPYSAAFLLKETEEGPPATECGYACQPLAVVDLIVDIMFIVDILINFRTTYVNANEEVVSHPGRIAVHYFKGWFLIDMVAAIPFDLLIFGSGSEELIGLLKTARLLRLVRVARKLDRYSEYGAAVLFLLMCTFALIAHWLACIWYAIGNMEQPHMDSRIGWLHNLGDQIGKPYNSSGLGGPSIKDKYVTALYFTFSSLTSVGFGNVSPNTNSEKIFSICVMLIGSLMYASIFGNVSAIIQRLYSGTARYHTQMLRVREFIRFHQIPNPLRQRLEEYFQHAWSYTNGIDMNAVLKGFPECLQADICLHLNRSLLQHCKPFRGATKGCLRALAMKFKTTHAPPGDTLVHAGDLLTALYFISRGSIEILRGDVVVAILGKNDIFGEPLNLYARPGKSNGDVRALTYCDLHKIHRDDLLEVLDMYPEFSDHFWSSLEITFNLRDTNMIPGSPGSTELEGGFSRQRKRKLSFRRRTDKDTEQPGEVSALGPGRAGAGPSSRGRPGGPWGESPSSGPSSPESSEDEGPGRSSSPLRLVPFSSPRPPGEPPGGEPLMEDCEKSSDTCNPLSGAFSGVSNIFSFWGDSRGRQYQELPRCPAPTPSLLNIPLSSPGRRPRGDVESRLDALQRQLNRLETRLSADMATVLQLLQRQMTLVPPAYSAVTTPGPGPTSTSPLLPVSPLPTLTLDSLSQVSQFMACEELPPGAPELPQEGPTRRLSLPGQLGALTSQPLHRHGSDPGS
row,Compound,"hERG current change (%, negative = inhibition) at 10uM"
1,Cc1cnnn1-c1ccc([N+](=O)[O-])cc1,23.5%
2,CC(C)(C)NC(=O)c1ccc2c(c1)C(=O)N(C1CCCCC1)C2=O,-22.7%
3,Cc1ccc2[nH]c3c(c2c1)CN(C(=O)CN1CC(C)OC(C)C1)CC3 (stereo not drawn),4.51%
4,CSc1nnc(SCC#N)s1,8.95%
5,CC(C)=CCN1CCN(Cc2ccoc2)CC1CCO (stereo not drawn),14.2%
6,COc1cccc(NC(=O)CN(C)CC(=O)NCc2ccc3c(c2)OCO3)c1,-21.2%
7,O=C(CCS(=O)(=O)c1ccccc1Cl)NCc1ccc(F)cc1,-25.6%
8,Cc1nc2sc(C(c3ccco3)N3CCN(c4ccccc4F)CC3)c(O)n2n1 (stereo not drawn),0.233%
9,CCOC(=O)c1c(-c2ccccc2)csc1NC(=O)c1nn(CC)cc1Br,6.4%
10,COCCNC(=O)CN1C(=O)COc2ccc(S(=O)(=O)N3CCCCCC3)cc21,20.3%
11,Cc1ccc(OCC(=O)Nc2ccc3c4c(cccc24)CC3)c(C)c1,10.4%
12,CCC(C(=O)NC1CCCC1)n1c(SCc2cccc(C)c2)nc2ccncc21 (stereo not drawn),-19.7%
13,COCCCNC(=O)CC(C)c1ccccc1 (stereo not drawn),11.2%
14,CC(C)(C)c1cc(C(=O)Nc2cccc3ccccc23)ccn1,-8.18%
15,CC(=O)Nc1ccc(NC(=O)COc2cc(C)cc3oc(=O)cc(C)c23)cc1,22.7%
16,O=C(NC1CCCC1)C1CCCN(S(=O)(=O)c2cccc3cccnc23)C1 (stereo not drawn),1.27%
17,O=c1[nH]c(CSc2nnc(-c3ccncc3)n2Cc2ccco2)nc2ccccc12,-58.2%
18,CCOC(=O)N1CCN(C(=O)c2cnc3n(c2=O)CCS3)CC1,7.34%
19,CC(=O)c1ccc(OCc2cc(C(=O)N3CCC(Oc4ccccc4C)CC3)no2)cc1,6.69%
20,CCOc1ccc2ccccc2c1C(=O)N[C@@H]1C(=O)N2[C@@H]1SC(C)(C)[C@@H]2C(=O)[O-].O.[Na+],23.7%
21,O=c1cnn(Cc2c(Cl)cccc2Cl)c2ccccc12,-5.93%
22,CCc1ccc(OCC(=O)Nc2cc(S(=O)(=O)CC)ccc2O)cc1,-0.287%
23,Cc1cccc2c(C(=O)O)c3cccc(C)c3nc12,1.39%

row,Compound,"hERG current change (%, negative = inhibition) at 10uM"
1,CCC(=NCCCn1ccnc1)c1c(O)n(Cc2ccccc2)c(=O)[nH]c1=O,-68%
2,Cc1cc(C)c(S(=O)(=O)c2c(C)cccc2C)c(OCC(C)C)n1,2.76%
3,Cn1c2c(c(=O)n(C)c1=O)C(NC(=O)c1ccco1)(C(F)(F)F)C(=O)N2 (stereo not drawn),16.3%
4,CC(C)NC(=O)CN(Cc1ccccc1)S(=O)(=O)c1ccccc1,-2.13%
5,O=C(COC(=O)c1ccccc1-n1cnnn1)c1ccc(Br)cc1,4.53%
6,CCCCC1NC(C(=O)O)CS1 (stereo not drawn),12.9%
7,COc1ccc([C@H]2CC(=O)C=C(c3ccc4cc[nH]c4c3)C2)cc1,-14.2%
8,CN(C)C(=O)Oc1ccc2nnc3ccnn3c2c1,1.04%
9,Cc1ccc(C)c(NC(=O)CSc2nnc(-c3ccncc3)o2)c1,7.04%
10,COc1cccc(/C=C/C(=O)NCc2cn3cc(Cl)ccc3n2)c1OC,34.4%
11,CC1Sc2ccc(C(=O)Nc3ncccc3O)cc2NC1=O (stereo not drawn),-6.83%
12,Cc1ccc(C(C(=O)NC2CCCCC2)N(C(=O)Cc2c[nH]c3ccccc23)c2ccccc2C)o1 (stereo not drawn),20.2%
13,O=C(Nc1ccc(C(=O)NCc2ccccc2Cl)cc1)C1=CSCCO1,9.63%
14,O=C(NC1CCCCCC1)C1CCN(S(=O)(=O)c2ccccc2)CC1,6.07%
15,CC(C)CNC(=O)C1Nc2ccc(OC(F)(F)F)cc2C2C=CCC12 (stereo not drawn),2.62%
16,Cn1cc(S(=O)(=O)N2CCOCC2)cc1C(=O)Nc1ccc(Cl)cc1,-51%
17,Cc1ccccc1-n1c(SC/C(O)=C(\C#N)c2nc3ccccc3[nH]2)nnc1-c1ccncc1,-19.6%
18,N#CC1=C(N)NC(SCc2ccc(Cl)cc2)=C(C#N)C12CCCCC2,-28.6%
19,O=C(C1=C(O)C(=O)N(Cc2ccccc2)C1c1ccncc1)c1ccco1 (stereo not drawn),13.5%
20,COc1ccc(CNC(=O)c2c(-c3cc(Cl)c(OC)c(Cl)c3)noc2C)cc1,-3.56%
21,CC(C)OCCCNC(=O)CN1C(=O)/C(=C/c2ccccc2)Sc2ccccc21,-29.2%
22,CCN(CC)CCCNC(=O)CNC(=O)c1nn(-c2ccc(OC)c(OC)c2)c(=O)c2ccccc12,21.6%
